# From a collection of fitness landscapes (doi:10.1016/j.celrep.2020.107928)
# In all, about 81,000 sequences were measured (“one-hybrid fitness for binding NBS DNA”: median about -0.1, highest 2% from about 0.36 on). This is one part of the list.
# B1: Caulobacter ParB omega fusion; a variant is named by its letters at X, in order, B8GW30 (parent)
# chain: MESVVVGEPGMSEGRRGLGRGLSALLGEVDAAPAQAPGEQLGGSREAPIEILQRNPDQPRRTFREEDLEDLSNSIREKGVLQPILVRPSPDTAGEYQIVAGERAWRAAQRAGLKTVPIMVRELDDLAVLEIGIIENVQRADLNVLEEALSYKVLMEKFERTQENIAQTIGKSXSHVANXMRLLXLPDEVQSYLVSGELTAXHARAIAAAADPVALAKQIIEGGLSVRETEALARKAPNLSAGKSKGGRPPRVKDTDTQALESDLSSVLGLDVSIDHRGSTGTLTITYATLEQLDDLCNRLTRGI
# Variants of: B1
# Test: one-hybrid fitness for binding NBS DNA (the Noc-binding site; scaled: cognate 1, non-cognate 0); higher = stronger binding
# Details: with NBS DNA site
# Summary of the method: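 Fitness here means the log change in variant-to-wild-type read ratio between plasmids sequenced before and after selection. That scale was set so cognate equals 1 and non-cognate equals 0. The selection was a bacterial one-hybrid screen of Caulobacter ParB libraries, four specificity codons randomised, in E. coli USO carrying a HIS3 reporter with the site 19 bp from the promoter, grown 48 hours at 37°C on M9-minus-histidine with 0.1 mM IPTG and 5 mM 3-AT.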
row,Variant,one-hybrid fitness for binding NBS DNA
1,SFAT,≤ 0.2
2,SRKQ,≤ 0.2
3,SQQA,≤ 0.2
4,RQMA,≤ 0.2
5,HGLM,≤ 0.2
6,RETH,≤ 0.2
7,YMEF,≤ 0.2
8,DYIS,≤ 0.2
9,IKRT,≤ 0.2
10,ELFG,≤ 0.2
11,VELC,≤ 0.2
12,KFYT,≤ 0.2
13,QTPT,0.418
14,NMPE,≤ 0.2
15,NYPD,≤ 0.2
16,CGAY,≤ 0.2
17,MATR,≤ 0.2
18,PYPI,≤ 0.2
19,QDPE,≤ 0.2
20,MGVN,≤ 0.2
21,VLSG,≤ 0.2
22,IIPC,≤ 0.2
23,LHEK,≤ 0.2
24,DDDP,≤ 0.2

row,Variant,one-hybrid fitness for binding NBS DNA
1,QNRV,≤ 0.2
2,LCLM,≤ 0.2
3,SQIW,≤ 0.2
4,SRVL,≤ 0.2
5,DAPS,≤ 0.2
6,KPIS,≤ 0.2
7,TEHC,≤ 0.2
8,QRKV,0.588
9,NHQT,≤ 0.2
10,TVIG,≤ 0.2
11,RNWQ,≤ 0.2
12,KSIV,≤ 0.2
13,KRCL,≤ 0.2
14,PVGT,≤ 0.2
15,SRDI,≤ 0.2
16,VDAS,≤ 0.2
17,LVAY,≤ 0.2
18,KHMG,≤ 0.2
19,WDMT,≤ 0.2
20,PHKA,≤ 0.2
21,LCRV,≤ 0.2
22,LDHC,≤ 0.2
23,QPHF,≤ 0.2
24,PKID,≤ 0.2

row,Variant,one-hybrid fitness for binding NBS DNA
1,CMNC,≤ 0.2
2,GSVQ,≤ 0.2
3,YPQY,≤ 0.2
4,RYWA,≤ 0.2
5,QHDF,≤ 0.2
6,SGQL,≤ 0.2
7,QPAT,≤ 0.2
8,SNTA,≤ 0.2
9,PQKY,≤ 0.2
10,TKAC,≤ 0.2
11,AGGR,≤ 0.2
12,MMEC,≤ 0.2
13,RIFY,≤ 0.2
14,STAQ,≤ 0.2
15,HGCS,≤ 0.2
16,IYVT,≤ 0.2
17,SYGG,≤ 0.2
18,LKYI,≤ 0.2
19,PTMA,≤ 0.2
20,EHAL,≤ 0.2
21,SQCK,≤ 0.2
22,AYAS,≤ 0.2
23,RALI,≤ 0.2
24,DPDN,≤ 0.2

row,Variant,one-hybrid fitness for binding NBS DNA
1,IARY,≤ 0.2
2,PSEG,≤ 0.2
3,QPYY,≤ 0.2
4,IDFR,≤ 0.2
5,AYCK,≤ 0.2
6,QWAR,0.222
7,FSPI,≤ 0.2
8,GTAS,≤ 0.2
9,QEVS,≤ 0.2
10,IFRK,≤ 0.2
11,HGPT,≤ 0.2
12,TIKS,≤ 0.2
13,WTAR,≤ 0.2
14,SDYT,≤ 0.2
15,SRVM,≤ 0.2
16,YLPR,≤ 0.2
17,ERVN,≤ 0.2
18,QADQ,≤ 0.2
19,AGLT,≤ 0.2
20,LVYM,≤ 0.2
21,IRRM,≤ 0.2
22,NDTT,≤ 0.2
23,PRPM,≤ 0.2
24,SSCV,≤ 0.2

row,Variant,one-hybrid fitness for binding NBS DNA
1,TMGD,≤ 0.2
2,QQGC,≤ 0.2
3,IPDA,≤ 0.2
4,SQTC,≤ 0.2
5,YYCL,≤ 0.2
6,DRYP,≤ 0.2
7,YSHL,≤ 0.2
8,VGIG,≤ 0.2
9,YRYF,≤ 0.2
10,VSLS,≤ 0.2
11,VNPD,≤ 0.2
12,TRWF,≤ 0.2
13,LLYP,≤ 0.2
14,QYWS,0.204
15,EQLG,≤ 0.2
16,KRKN,0.272
17,WVDV,≤ 0.2
18,QFHS,0.208
19,TNNC,≤ 0.2
20,DPCG,≤ 0.2
21,HATF,≤ 0.2
22,VRYW,≤ 0.2
23,WKLY,≤ 0.2
24,HIIV,≤ 0.2

row,Variant,one-hybrid fitness for binding NBS DNA
1,LYFQ,≤ 0.2
2,VWLK,≤ 0.2
3,LMSR,≤ 0.2
4,PTCP,≤ 0.2
5,HFVS,≤ 0.2
6,GAYG,≤ 0.2
7,PVKC,≤ 0.2
8,YPPQ,≤ 0.2
9,TVVL,≤ 0.2
10,RNAL,≤ 0.2
11,HYET,≤ 0.2
12,LPCS,≤ 0.2
13,RKTS,0.583
14,KRDF,≤ 0.2
15,QIVV,≤ 0.2
16,RSCM,≤ 0.2
17,YLNS,≤ 0.2
18,ERTI,≤ 0.2
19,DHNS,≤ 0.2
20,VYPT,≤ 0.2
21,HMHT,≤ 0.2
22,RKSL,≤ 0.2
23,QRST,0.772
24,YGER,≤ 0.2

row,Variant,one-hybrid fitness for binding NBS DNA
1,CGQV,≤ 0.2
2,MQCR,≤ 0.2
3,FRNR,≤ 0.2
4,YPHC,≤ 0.2
5,TNCL,≤ 0.2
6,QRCI,0.286
7,WQLR,≤ 0.2
8,PHIR,≤ 0.2
9,ARDV,≤ 0.2
10,CREV,≤ 0.2
11,PFFG,≤ 0.2
12,FMPS,≤ 0.2
13,QYYR,0.466
14,HYGG,≤ 0.2
15,WLHL,≤ 0.2
16,ASLH,≤ 0.2
17,YCKG,≤ 0.2
18,QVCY,≤ 0.2
19,FGKG,≤ 0.2
20,KYRT,0.345
21,MQHS,≤ 0.2
22,AYIR,≤ 0.2
23,KPQR,≤ 0.2
24,EQIW,≤ 0.2

row,Variant,one-hybrid fitness for binding NBS DNA
1,DLGR,≤ 0.2
2,RLLT,0.337
3,NELD,≤ 0.2
4,GVKS,≤ 0.2
5,ISFC,≤ 0.2
6,FMTS,≤ 0.2
7,TIRC,≤ 0.2
8,GSEV,≤ 0.2
9,DSKT,≤ 0.2
10,IERG,≤ 0.2
11,PHRY,≤ 0.2
12,IEPP,≤ 0.2
13,EYKR,≤ 0.2
14,VQKC,≤ 0.2
15,DKDC,≤ 0.2
16,DHPE,≤ 0.2
17,TPRT,≤ 0.2
18,QRIM,0.214
19,ISRC,≤ 0.2
20,GMVD,≤ 0.2
21,SSQG,≤ 0.2
22,YPNM,≤ 0.2
23,SFQL,≤ 0.2
24,VMNW,≤ 0.2

row,Variant,one-hybrid fitness for binding NBS DNA
1,PVHN,≤ 0.2
2,RWGS,≤ 0.2
3,GPKF,≤ 0.2
4,NLSL,≤ 0.2
5,LMDN,≤ 0.2
6,TAMK,≤ 0.2
7,CTKV,≤ 0.2
8,REMF,≤ 0.2
9,IQWS,≤ 0.2
10,DDYT,≤ 0.2
11,APPY,≤ 0.2
12,KRVF,≤ 0.2
13,AKIQ,≤ 0.2
14,FFLV,≤ 0.2
15,KRSG,≤ 0.2
16,PNSP,≤ 0.2
17,EQAR,≤ 0.2
18,KESR,≤ 0.2
19,KSHC,≤ 0.2
20,AAFN,≤ 0.2
21,RRIA,0.552
22,FWLF,≤ 0.2
23,RNYQ,≤ 0.2
24,YALT,≤ 0.2

row,Variant,one-hybrid fitness for binding NBS DNA
1,IHYC,≤ 0.2
2,AWVS,≤ 0.2
3,MLKG,≤ 0.2
4,EKQG,≤ 0.2
5,PSWG,≤ 0.2
6,PTFM,≤ 0.2
7,QTVI,≤ 0.2
8,FVTS,≤ 0.2
9,HGPS,≤ 0.2
10,VDSL,≤ 0.2
11,MTQR,≤ 0.2
12,CGNW,≤ 0.2
13,ELRQ,≤ 0.2
14,GECF,≤ 0.2
15,ELLC,≤ 0.2
16,VVPE,≤ 0.2
17,PVYD,≤ 0.2
18,LLRA,≤ 0.2
19,QSPG,≤ 0.2
20,SHSS,≤ 0.2
21,NCGC,≤ 0.2
22,CERA,≤ 0.2
23,QMHN,≤ 0.2
24,PPLT,≤ 0.2

row,Variant,one-hybrid fitness for binding NBS DNA
1,SEDG,≤ 0.2
2,LHHA,≤ 0.2
3,AANY,≤ 0.2
4,EDGR,≤ 0.2
5,DYVY,≤ 0.2
6,LHGS,≤ 0.2
7,SENN,≤ 0.2
8,VKPI,≤ 0.2
9,QAPW,≤ 0.2
10,LCWF,≤ 0.2
11,PPQS,≤ 0.2
12,SLRL,≤ 0.2
13,APSD,≤ 0.2
14,PFFV,≤ 0.2
15,AART,≤ 0.2
16,FLTG,≤ 0.2
17,IRNN,≤ 0.2
18,TCPM,≤ 0.2
19,TILG,≤ 0.2
20,KQLT,≤ 0.2
21,DIPL,≤ 0.2
22,IDWT,≤ 0.2
23,RPCW,≤ 0.2
24,LRAA,≤ 0.2

row,Variant,one-hybrid fitness for binding NBS DNA
1,AQLM,≤ 0.2
2,WFLS,≤ 0.2
3,HHLG,≤ 0.2
4,RCAH,0.219
5,RNMY,≤ 0.2
6,PIFS,≤ 0.2
7,STPG,≤ 0.2
8,KLMW,≤ 0.2
9,VLMD,≤ 0.2
10,DPKL,≤ 0.2
11,LVLT,≤ 0.2
12,ACGK,≤ 0.2
13,THIS,≤ 0.2
14,TNVM,≤ 0.2
15,MHHT,≤ 0.2
16,LYTI,≤ 0.2
17,VWKA,≤ 0.2
18,ICQT,≤ 0.2
19,EQHC,≤ 0.2
20,QNPY,≤ 0.2
21,RISV,≤ 0.2
22,RAGG,≤ 0.2
23,RADM,≤ 0.2
24,ILDV,≤ 0.2

row,Variant,one-hybrid fitness for binding NBS DNA
1,YAAR,≤ 0.2
2,PATL,≤ 0.2
3,DEKR,≤ 0.2
4,NETR,≤ 0.2
5,QWLS,≤ 0.2
6,LELC,≤ 0.2
7,IIHE,≤ 0.2
8,YWII,≤ 0.2
9,GKDL,≤ 0.2
10,TKTW,≤ 0.2
11,PKDK,≤ 0.2
12,LCPT,≤ 0.2
13,ISTK,≤ 0.2
14,INYT,≤ 0.2
15,VTPP,≤ 0.2
16,HEKV,≤ 0.2
17,SDIT,≤ 0.2
18,MCFR,≤ 0.2
